# ± gives the standard deviation of the averaged measurements. This is one part of the list.
# System: PfAP2-G AP2 domain (GST-tagged)
# Experiment: gcPBM binding intensity (ln(normalized median fluorescence intensity)); higher = stronger DNA binding
# Method in brief: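 Binding intensity is the highest Masliner-normalised natural-log median intensity over replicate spots in either probe orientation. To obtain it, GST-tagged P. falciparum DNA-binding domains made in E. coli were incubated for 1 h on an Agilent 4 × 180k array of primer-extended double-stranded 36-bp intergenic genomic probes plus negative controls. Detection used Alexa488 anti-GST antibody with scanning at 488 nm.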
row,Sequence,gcPBM binding intensity (ln)
1,ATTTCATTTTATAAGTGTACAATAAAAAAAAAAAAA [XGTACX_site8677],11.3 ± 1
2,CCATAAGATATATGTAGTACATATTATATATATATA [XGTACX_site2104],11.6 ± 0.95
3,TATACACATATATAAACACACAAAAAAAAAAAAAAA [CACACA_site7041],9.78 ± 0.53
4,AATATATAGCTAAAAACACACAAATATATACGCATA [CACACA_site3608],9.88 ± 0.23
5,CATTATGTCGTAAATACACACATACCTATACATACA [CACACA_site6763],10.3 ± 0.21
6,TTTATATGATATATTACACACAAAAAAAAAAAAAAA [CACACA_site3549],9.67 ± 0.52
7,CTCTTCTATATATAAGCATGCATTCATAATAATTTA [TGCATGCA_site679],9.8 ± 0.071
8,TAGATACTTGTCATGGGTACATATCGTACCTTTTGG [XGTACX_site6781],11.3 ± 0.8
9,ATTTATATATATATAGGTACACATATTTATATATAA [XGTACX_site8487],11.3 ± 1.1
10,AAACCAAGGCACAATAATTAAATAAATAAAATCATG [GTGCAC_negctrl_site574],9.93 ± 0.16
11,TCATTCATATGTTACACACACACACCCACATAAAAA [CACACA_site3245],10.4 ± 0.42
12,CATAATTATGCAATTGCACACAACTATCATTTTTTT [CACACA_site2997],10.16 ± 0.042
13,AAGAGTTAAAAAAATACACACATATATATTTTTTTA [CACACA_site1980],9.85 ± 0.042
14,TATATATAAAAAACATGTACACAAATTTACATACAT [XGTACX_site4777],11.4 ± 0.86
15,TCACTAAACCATTAGAGTACTTGACATATAATGAGC [XGTACX_site3272],11 ± 0.52
16,GATTATATATGAAAATGTACAAATATATATATATAT [XGTACX_site5963],10.8 ± 0.28
17,AAAAAAAAAAAAAAAAAAAAAAAAAAATACATATGT [XGTACX_negctrl_site95],11.1 ± 0.69
18,TTTTTGTATGCTTCCCGACTACATTATGCCATAAAT [CACACA_negctrl_site136],10.2 ± 0.15
19,AAGGTGGGAAAAAATAGTACACAACAAAAATGTATG [XGTACX_site8741],11.7 ± 1

row,Sequence,gcPBM binding intensity (ln)
1,TACATTCTAAATATTACACACTTTATAAAATAATAA [CACACA_site4069],9.96 ± 0.35
2,ATATATATAAATATATGTACTAATATATACATATAT [XGTACX_site2289],11 ± 0.69
3,AGAAAAGAGAAATGGGCACACACACCCATATTATAT [CACACA_site8433],10.5 ± 0.41
4,ATATATCTATATGTGTGTACATATAAGTATTTATAT [XGTACX_site5333],11.3 ± 0.86
5,ACATATAAACTGTATACACACAAATATTGCATATAT [CACACA_site6804],10.09 ± 0.021
6,CAAAATATTTAAAAAAGTACTTAAAATAAATTCAAA [XGTACX_site6866],11.4 ± 0.88
7,ATATTTAAATATATTTATATATATAAAAAAAAATAT [GTGCAC_negctrl_site312],9.82 ± 0.13
8,CCCATGTAATATTAAACACACACTCATATAACACAA [CACACA_site7906],10.1 ± 0.23
9,ATATTATATCTAATCGTGCACAACTGTACATTTGTC,11.1 ± 0.81
10,TTGTATCATATATTATGTACATATTTATTTATTATC [XGTACX_site7723],11.4 ± 0.54
11,AAAAAAATAAAAAATATATAAATAATTAATACATGT [GTGCAC_negctrl_site633],9.57 ± 0.25
12,CACACAACTATCAAGGTGCTAAAATGAAATAATATA [GTGCAC_site9871],9.87 ± 0.071
13,AATATAAATAAAAACACACACACACGGATATTTATA [CACACA_site7134],10.2 ± 0.14
14,ATTATACTTTCCATTCGTACATATATAAATAAATAA [XGTACX_site6245],11 ± 0.61
15,ATATATAGATGTGAATTATTTATATTATCTATTCTT [CACACA_negctrl_site518],9.4 ± 0.23
16,AATATGTTTTACGTCTCACACATATAGGTTTATATT [CACACA_site4713],10.09 ± 0.049
17,CATAAATACAAATATACACACATATTTATATTTATA [CACACA_site7277],9.865 ± 0.035
18,AAAAAGAACACAAAAAGTACAAAAATTATAATGATA [XGTACX_site2676],11.1 ± 0.71
19,AAACTTCAAAAAGAGCACTTGAATTTTTTTTTTTTT [TGCATGCA_negctrl_site133],9.68 ± 0.042

row,Sequence,gcPBM binding intensity (ln)
1,ATAAGTATTACTAGTACACACAAGTTGTTAATCCTT [CACACA_site3324],11.3 ± 0.77
2,TATATTATATAATTTTAACACACAAGAATATAAACT [CACACA_site8378],10.2 ± 0.23
3,AACAATAAATTATTATGTACACATATATTATATATA [XGTACX_site4629],11.5 ± 0.98
4,ATATTTTAAAATAATACACACAAAATGATTCTTAAT [CACACA_site2930],10.2 ± 0.15
5,TATTTAAAATAATAACAAAATTAACATAAATATATA [GTGCAC_negctrl_site472],9.635 ± 0.092
6,TTTTTCCTTATTAATACACACATTCACCTTTTAAAT [CACACA_site479],10.3 ± 0.17
7,AGTTGCATACATTGAAGTACAGAACATTTATATATA [XGTACX_site240],11.3 ± 0.89
8,TTAAATTCGTCATTTTAAAATAATACAAAAGTTCAA [CACACA_negctrl_site19],9.88 ± 0.12
9,ATATAATCTGAGTGCACACAAATAAATAAACATACA [CACACA_site422],10.5 ± 0.34
10,TTTTTTTTGTATTTTTCACACACACCGAAGTAAACA [CACACA_site8575],10.4 ± 0.51
11,TAAAAGGATGCATATACACACATATAGATTTATATA [CACACA_site7336],9.915 ± 0.035
12,TTACGATTTAAAATGGGTACATATATATGAAAAAAA [XGTACX_site545],11.3 ± 0.86
13,CTTATGTGCATACCTACACACTTACCTATATTTATA [CACACA_site7411],10.08 ± 0.014
14,ATTTATAAAATATAATTACATTTTTAAATAATAAAA [GTGCAC_negctrl_site43],9.63 ± 0.099
15,AAAAAAAAAACATACACACACATATAGATTTATATG [CACACA_site6847],9.96 ± 0.028
16,TACACAAAGTTACATACACACTAATATTTACACCAT [CACACA_site6602],10.1 ± 0.071
17,TAAAGAAAAATATAAAGTACAAAAATAAAAAAAATA [XGTACX_site8226],11 ± 0.54
18,TCAAAGTAAAACAGGACATGCACAGAACATCCTGCC [TGCATGCA_site2],10.1 ± 0.24
